Our source for the relative growth values is the supplement of paper PMC9446081.

Hit rate of the full screen: of about 39,000 compounds, about 220 (0.56%) showed activity. The list shows a part of the results.
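Note: static incubation at 37 °C against the wild-type strain, values averaged over two biological replicates.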

In the test the test system is Escherichia coli K-12 BW25113. The experiment in a line: relative growth (OD600 normalised to plate interquartile mean) (fraction); higher = less growth inhibition, active = 0.2 or less. Particulars: 50 µM; LB; incubation time: overnight (16-24 h).
For `CCCNC(=O)Nc1ccc2c(c1)OC[C@H](C)N(C(=O)C1CCOCC1)C[C@@H](C)[C@@H](OC)CN(C)C2=O`, the relative growth is inactive: 1.01.

`C[C@H](CO)N1C[C@H](C)[C@@H](CN(C)CC2CC2)Oc2ccc(NS(=O)(=O)c3ccc(F)cc3)cc2CC1=O`: the relative growth is inactive: 0.988.

For the compound `N=C(NCCC[C@H](N)C(=O)O)N[C@@H](CCC(=O)O)C(=O)O`, the relative growth was inactive: 1.

For `Cc1ccc(S(=O)(=O)Nc2ccc3c(c2)C(=O)N(C)[C@@H]2CC[C@H](CC(=O)NCCc4ccncc4)O[C@H]2CO3)cc1`, the relative growth is inactive: 0.992. The result for `COc1ccc(CN(C)C[C@H]2OCCCC[C@@H](C)Oc3ccc(NS(=O)(=O)c4c(C)noc4C)cc3C(=O)N([C@H](C)CO)C[C@@H]2C)cc1` reads inactive: 1.01; that for `COCC#Cc1ccc2c(c1)O[C@H](CN(C)S(=O)(=O)c1ccc(OC)cc1)[C@H](C)CN([C@H](C)CO)S2(=O)=O`, inactive: 1.05. `CC(C)NC(=O)Nc1ccc2c(c1)C(=O)N([C@@H](C)CO)C[C@H](C)[C@@H](CN(C)C(=O)C1CCCCC1)OCCCC[C@@H](C)O2`: the relative growth was inactive: 1. The figure for `Cc1noc(C)c1NC(=O)N(C)C[C@@H]1OCCCC[C@@H](C)Oc2ccc(NS(=O)(=O)c3ccc(Cl)cc3)cc2C(=O)N([C@@H](C)CO)C[C@H]1C` is inactive: 1.01; for `CC(C)(C)[S@@](=O)N1Cc2cc(C(=O)NC3CCCCC3)nc(-c3cccc(Br)c3)c2[C@H]1CCO` it is inactive: 0.962.

Consider `CC(C)CCC[C@@H](C)[C@H]1CC[C@@]2(C)C3=C(CC[C@]12C)[C@@]1(C)CC[C@H](OC(=O)CCl)C(C)(C)[C@@H]1CC3`, for which the relative growth is inactive: 0.911. The result for `N=C(N)NCCC[C@@H](NC(=O)CC1(CC(=O)N2CCN([C@H]3c4ccccc4NC(=O)c4ccccc43)CC2)CCCC1)C(=O)NCCn1c(=O)n(-c2ccccc2)n(-c2ccccc2)c1=O` reads inactive: 0.801. For `COc1ccc(CN(C)C[C@H]2OCCCC[C@H](C)Oc3ccc(NC(=O)Nc4ccc5c(c4)OCO5)cc3C(=O)N([C@H](C)CO)C[C@H]2C)cc1`, the relative growth is inactive: 0.989. The result for `COCC(=O)N1C[C@@H](C)[C@H](OC)CN(C)C(=O)c2ccc(NC(=O)c3ccc(F)cc3)cc2OC[C@H]1C` reads inactive: 0.992; that for `COC(=O)c1cc(S(C)(=O)=O)ccc1OC`, inactive: 0.977; that for `C[C@@H]1CCCCO[C@@H](CN(C)S(=O)(=O)c2ccc(Cl)cc2)[C@@H](C)CN([C@@H](C)CO)C(=O)c2cc(NC(=O)c3ccccc3)ccc2O1`, inactive: 1.02. `Cc1noc(C)c1S(=O)(=O)Nc1ccc2c(c1)CC(=O)N([C@@H](C)CO)C[C@@H](C)[C@@H](CN(C)Cc1ccc(-c3ccccc3)cc1)O2`: the relative growth was inactive: 1.02. The figure for `O=C(C[C@@H]1CC[C@@H]2[C@H](COC[C@@H](O)CN2C(=O)c2ccncc2)O1)NCc1ccc(-c2ccccc2)cc1` is inactive: 1.01; for `CN(C)CCCNC(=O)C[C@@H]1C=C[C@H](NC(=O)Cc2cccnc2)[C@H](CO)O1` it is inactive: 0.874. The result for `CC(C)NC(=O)N(C)C[C@@H]1Oc2ccc(NS(=O)(=O)c3cn(C)cn3)cc2C(=O)N([C@@H](C)CO)C[C@@H]1C` reads inactive: 0.996. For `C[C@H](CO)N1C[C@H](C)[C@@H](CN(C)C(=O)c2ccc(F)cc2)OCc2ccccc2-c2c(n(C)c3ccccc23)C1=O`, the relative growth is inactive: 0.984. The result for `Cc1ccc(S(=O)(=O)Nc2ccc3c(c2)CC(=O)N([C@@H](C)CO)C[C@@H](C)[C@@H](CN(C)C(=O)Nc2cccc4ccccc24)O3)cc1` reads inactive: 1.

Consider `Cc1ccc(S(=O)(=O)N(C)C[C@H]2Oc3c(NC(=O)C4CC4)cccc3C(=O)N([C@@H](C)CO)C[C@@H]2C)cc1`, for which the relative growth is inactive: 0.983.

Regarding `Cc1noc(C)c1NC(=O)Nc1ccc2c(c1)CC(=O)N([C@@H](C)CO)C[C@H](C)[C@H](CN(C)CC1CC1)O2`, the relative growth was inactive: 0.981.

Consider `Cc1ccc(S[C@]2(C(=O)NCCN3CCOCC3)CC(=O)N(Cc3ccccc3Cl)[C@@H]2c2ccc(CO)cc2I)cc1`, for which the relative growth was inactive: 0.992. On to `CCCNC(=O)Nc1ccc2c(c1)OC[C@@H](C)N(C(=O)C1CCOCC1)C[C@@H](C)[C@@H](OC)CN(C)C2=O`, for which the relative growth was inactive: 0.996. The result for `COc1cccc(NC(=O)N2C[C@H](O)COC[C@@H]3O[C@@H](CC(=O)NCCCN4CCOCC4)CC[C@H]32)c1` reads inactive: 0.985; that for `O=C(C[C@H]1CC[C@@H]2[C@H](COC[C@H](O)CN2C(=O)c2ccc3c(c2)OCO3)O1)NCCN1CCCC1`, inactive: 0.989. The result for `Cc1noc(C)c1S(=O)(=O)N(C)C[C@@H]1Oc2c(NS(=O)(=O)c3cn(C)cn3)cccc2C(=O)N([C@H](C)CO)C[C@H]1C` reads inactive: 0.996; that for `C[C@H](CO)N1C[C@H](C)[C@H](CN(C)Cc2ccc(C(F)(F)F)cc2)OCCCC[C@H](C)Oc2ccc(NC(=O)C3CCCCC3)cc2C1=O`, inactive: 1.01; that for `N[C@@H](Cn1ccnc1)c1ccccc1`, inactive: 1.03. The result for `C[C@@H]1CCCCO[C@@H](CN(C)Cc2ccc(C(=O)O)cc2)[C@@H](C)CN([C@H](C)CO)C(=O)c2cc(NC(=O)C3CCCCC3)ccc2O1` reads inactive: 1.02; that for `C[C@@H]1CN([C@@H](C)CO)C(=O)c2cc(NC(=O)Nc3ccccc3)ccc2O[C@H]1CN(C)Cc1ccc(-c2ccccc2)cc1`, inactive: 1.02.

Regarding `C[C@H]1CN([C@@H](C)CO)C(=O)c2cc(NC(=O)Nc3ccc(C(F)(F)F)cc3)ccc2O[C@H]1CN(C)C(=O)Nc1ccc(C(F)(F)F)cc1`, the relative growth is inactive: 1.02. The figure for `COc1ccc(CNC(=O)C[C@@H]2CC[C@H]3[C@@H](COc4ccc(NC(=O)C(C)C)cc4C(=O)N3C)O2)cc1` is inactive: 0.99; for `COc1ccc(CN(C)C[C@@H]2OCCCC[C@H](C)Oc3ccc(NC(=O)Nc4ccc(F)cc4)cc3C(=O)N([C@@H](C)CO)C[C@H]2C)cc1` it is inactive: 1.01; for `C[C@@H]1CN([C@H](C)CO)C(=O)Cc2cc(NS(=O)(=O)c3ccccc3)ccc2O[C@@H]1CN(C)Cc1ccc(-c2ccccc2)cc1` it is inactive: 0.998. The result for `C[C@H](CO)N1C[C@H](C)[C@H](CN(C)S(=O)(=O)c2ccc(F)cc2)OCCCC[C@H](C)Oc2ccc(NC(=O)Nc3cccc4ccccc34)cc2C1=O` reads inactive: 1.04; that for `CN(C)C(=O)CN1C[C@@H]2CCN(C(=O)[C@H]3CCCO3)CC[C@H]2S1(=O)=O`, inactive: 0.982; that for `C[C@H](CO)N1C[C@H](C)[C@@H](CN(C)Cc2ccc(Cl)c(Cl)c2)OCCCC[C@H](C)Oc2ccc(NC(=O)c3ccccc3)cc2C1=O`, inactive: 0.966. The result for `N#CCCn1nc2c(c1N)CCC2` reads inactive: 1.01; that for `C[C@@H]1CN([C@@H](C)CO)S(=O)(=O)c2ccc(C#CCN(C)C)cc2O[C@H]1CN(C)S(C)(=O)=O`, inactive: 1.01. For the compound `C[C@H]1CN([C@@H](C)CO)S(=O)(=O)c2ccc(-c3cncnc3)cc2O[C@@H]1CN(C)C(=O)Cc1ccncc1`, the relative growth was inactive: 0.977.

`O=C(O)CCC(=O)NCc1cccnc1`: the relative growth was inactive: 1.

In the case of `CC(C)NC(=O)N(C)C[C@H]1Oc2cc(C#Cc3ccc(F)cc3)ccc2S(=O)(=O)N([C@@H](C)CO)C[C@@H]1C`, the relative growth was inactive: 0.99. Regarding `O=S1(=O)N[C@H](c2ccccc2)CO1`, the relative growth is inactive: 1.02. On to `Cc1ccccc1OC[C@@H](O)CO`, for which the relative growth was inactive: 1.01. With `CCC(C)CCCCC(=O)NC(CCN)C(=O)NC(C(=O)NC(CCN)C(=O)NC1CCNC(=O)C(C(C)O)NC(=O)C(CCN)NC(=O)C(CCN)NC(=O)C(CC(C)C)NC(=O)C(Cc2ccccc2)NC(=O)C(CCN)NC1=O)C(C)O.O=S(=O)(O)O` (stereo not drawn), the relative growth was active: 0.0419. The result for `C[C@@H]1CN([C@@H](C)CO)C(=O)c2cc(NC(=O)Nc3ccccc3)ccc2O[C@@H](C)CCCCO[C@H]1CN(C)S(=O)(=O)c1ccc(Cl)cc1` reads inactive: 0.985; that for `N[C@H](C(=O)O)[C@H](O)c1ccc(O)c(O)c1`, inactive: 0.984; that for `O=C(C[C@H]1CC[C@@H]2[C@H](COC[C@H](O)CN2C(=O)Nc2cccc(Cl)c2)O1)NCc1ccccc1F`, inactive: 1.02.

`COCCNC(=O)C[C@H]1CC[C@@H]2[C@H](COC[C@@H](O)CN2C(=O)Nc2ccccc2OC)O1`: the relative growth is inactive: 0.99. As for `CCN1C(=O)C[C@@H]2[C@@H]1CCN2S(=O)(=O)c1cn(C)cn1`, the relative growth was inactive: 0.992. The figure for `CN1C(=O)c2cc(NC(=O)Cc3cccs3)ccc2OC[C@H]2O[C@H](CC(=O)NCCc3ccncc3)CC[C@H]21` is inactive: 0.998; for `C[C@@H]1CN([C@H](C)CO)C(=O)c2cc(NC(=O)Nc3cccc4ccccc34)ccc2O[C@@H]1CN(C)S(=O)(=O)c1ccc(Cl)cc1` it is inactive: 0.982. The figure for `C[C@@H]1CN([C@@H](C)CO)S(=O)(=O)c2ccc(C#Cc3cccnc3)cc2O[C@@H]1CN(C)C(=O)CN(C)C` is inactive: 0.996. `COc1ccc(S(=O)(=O)N(C)C[C@@H]2Oc3ccc(NS(=O)(=O)c4ccc(C)cc4)cc3CC(=O)N([C@@H](C)CO)C[C@H]2C)cc1`: the relative growth is inactive: 1.01. The figure for `C[C@H](CO)N1C[C@H](C)[C@H](CN(C)S(C)(=O)=O)Oc2c(NC(=O)c3cnccn3)cccc2C1=O` is inactive: 0.995; for `C/C=C1\[C@@H](O[C@H]2O[C@@H](CO)[C@@H](O)[C@@H](O)[C@@H]2O)OC=C(C(=O)OC)[C@H]1CC(=O)OC[C@H]1[C@H](C)[C@H](OC(=O)C[C@@H]2C(C(=O)OC)=CO[C@H](O[C@H]3O[C@@H](CO)[C@@H](O)[C@@H](O)[C@@H]3O)/C2=C\C)C[C@@H]1[C@H](CO)COC(=O)C[C@@H]1C(C(=O)OC)=CO[C@@H](O[C@H]2O[C@@H](CO)[C@@H](O)[C@@H](O)[C@@H]2O)/C1=C\C` it is inactive: 0.9.
